# Assay results: the supplement of paper PMC10037445
# Values joined by “and” are separate entries in the source; they are usually repeats but may differ in a detail not shown here. Equal entries are not always repeated. The full ranking holds about 2,900 compounds; the median of “NF-kB SEAP reporter activity, fold change vs agonist alone” is about 0.99, and the highest 2% start at about 2.6. Some of the results follow.
# Key:
# RAW-Dual [1] = test: NF-kB SEAP reporter activity, fold change vs agonist alone; higher = enhanced NF-kB activity
# Summary of the method: (§1)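 Cytotoxic wells were those whose IncuCyte confluency was below 70% of agonist controls in both mask sets. The cells were RAW-Dual macrophages at 50,000 cells/well in DMEM on 384-well plates, dosed with 50 nL of library stock by pin tool, stimulated with a PRR agonist 1 h later, and kept at 37 °C, 5% CO2 for 20 hours. IRF and NF-κB reporter activity, as fold change over agonist-alone wells, came from supernatant read by QuantiLuc luminescence and QuantiBlue absorbance, respectively.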
# RAW-Dual [2] = test: NF-kB SEAP reporter activity, fold change vs agonist alone; cytotoxicity flag (confluency mask): not cytotoxic; higher = enhanced NF-kB activity
# Summary of the method: as §1
# RAW-Dual [3] = test: NF-kB SEAP reporter activity, fold change vs agonist alone; cytotoxicity flag (confluency mask): cytotoxic (confluency <70% of control); higher = enhanced NF-kB activity
# Summary of the method: as §1
# [4] = library stock concentration (final ~1000-fold dilution): 10 mM, cytotoxicity flag (confluency mask): not cytotoxic, agonist: Imiquimod (TLR7) […]
# [5] = library stock concentration (final ~1000-fold dilution): 10 mM, cytotoxicity flag (confluency mask): not cytotoxic, agonist: MPLA (TLR4) […]
# [6] = agonist: ODN 1826 (TLR9) 0.5 ug/mL
# [7] = agonist: Pam2CSK4 (TLR2/6) 0.1 ug/mL
# [8] = agonist: Pam3CSK4 (TLR2/1) 0.1 ug/mL
compound,measurement,setting,value
NC(=O)c1ccccc1O,NF-kB SEAP reporter activity,RAW-Dual [1]; [4],0.898
same,NF-kB SEAP reporter activity,RAW-Dual [1]; [5],1.07
NC(=O)c1ccccc1O (library stock concentration (final ~1000-fold dilution): 10 mM),NF-kB SEAP reporter activity,RAW-Dual [2]; agonist: LPS (TLR4) 0.1 ug/mL,1.23
same,NF-kB SEAP reporter activity,RAW-Dual [2]; [6],0.958
same,NF-kB SEAP reporter activity,RAW-Dual [2]; [7],1.08
same,NF-kB SEAP reporter activity,RAW-Dual [2]; [8],1.08
CC(=O)OC1CCC2(C)C(CCC3(C)C2C(=O)C=C2C4C(C)C(C)CCC4(C)CCC23C)C1(C)C(=O)O (stereo not drawn),NF-kB SEAP reporter activity,RAW-Dual [1]; [4],1.02
same,NF-kB SEAP reporter activity,RAW-Dual [1]; [5],0.967
CC(=O)OC1CCC2(C)C(CCC3(C)C2C(=O)C=C2C4C(C)C(C)CCC4(C)CCC23C)C1(C)C(=O)O (stereo not drawn) (library stock concentration (final ~1000-fold dilution): 10 mM),NF-kB SEAP reporter activity,RAW-Dual [2]; agonist: LPS (TLR4) 0.1 ug/mL,0.924
same,NF-kB SEAP reporter activity,RAW-Dual [2]; [6],0.962
same,NF-kB SEAP reporter activity,RAW-Dual [2]; [7],0.723
same,NF-kB SEAP reporter activity,RAW-Dual [2]; [8],1.09
CC(C)C[C@H](NC(=O)[C@H](Cc1ccccc1)NC(=O)c1cnccn1)B(O)O,NF-kB SEAP reporter activity,"RAW-Dual [1]; library stock concentration (final ~1000-fold dilution): 10 mM, cytotoxicity flag (confluency mask): cytotoxic (confluency <70% of control), agonist: Imiquimod (TLR7) […]",2.15
same,NF-kB SEAP reporter activity,"RAW-Dual [1]; library stock concentration (final ~1000-fold dilution): 10 mM, cytotoxicity flag (confluency mask): cytotoxic (confluency <70% of control), agonist: MPLA (TLR4) […]",0.679
CC(C)C[C@H](NC(=O)[C@H](Cc1ccccc1)NC(=O)c1cnccn1)B(O)O (library stock concentration (final ~1000-fold dilution): 10 mM),NF-kB SEAP reporter activity,RAW-Dual [3]; agonist: LPS (TLR4) 0.1 ug/mL,0.448
same,NF-kB SEAP reporter activity,RAW-Dual [3]; [6],1.21
same,NF-kB SEAP reporter activity,RAW-Dual [3]; [7],0.987
same,NF-kB SEAP reporter activity,RAW-Dual [3]; [8],0.481
COC(=O)C1CC2=CC(=O)CCC2(C)C23OC2CC2(C)C(CCC24CCC(=O)O4)C13 (stereo not drawn),NF-kB SEAP reporter activity,"RAW-Dual [1]; library stock concentration (final ~1000-fold dilution): 2 mM, cytotoxicity flag (confluency mask): not cytotoxic, agonist: Imiquimod (TLR7) […]",1.03
same,NF-kB SEAP reporter activity,"RAW-Dual [1]; library stock concentration (final ~1000-fold dilution): 2 mM, cytotoxicity flag (confluency mask): not cytotoxic, agonist: MPLA (TLR4) […]",1.18
COC(=O)C1CC2=CC(=O)CCC2(C)C23OC2CC2(C)C(CCC24CCC(=O)O4)C13 (stereo not drawn) (library stock concentration (final ~1000-fold dilution): 2 mM),NF-kB SEAP reporter activity,RAW-Dual [2]; agonist: LPS (TLR4) 0.1 ug/mL,1.3
same,NF-kB SEAP reporter activity,RAW-Dual [2]; [6],1.23
same,NF-kB SEAP reporter activity,RAW-Dual [2]; [7],1.27
same,NF-kB SEAP reporter activity,RAW-Dual [2]; [8],1.12
CS(=O)(=O)c1ccc(C(=O)Nc2ccc(Cl)c(-c3ccccn3)c2)c(Cl)c1,NF-kB SEAP reporter activity,RAW-Dual [1]; [4],1.07
same,NF-kB SEAP reporter activity,RAW-Dual [1]; [5],0.945
CS(=O)(=O)c1ccc(C(=O)Nc2ccc(Cl)c(-c3ccccn3)c2)c(Cl)c1 (library stock concentration (final ~1000-fold dilution): 10 mM),NF-kB SEAP reporter activity,RAW-Dual [2]; agonist: LPS (TLR4) 0.1 ug/mL,1.19
same,NF-kB SEAP reporter activity,RAW-Dual [2]; [6],1.4
same,NF-kB SEAP reporter activity,RAW-Dual [2]; [7],0.898
same,NF-kB SEAP reporter activity,RAW-Dual [2]; [8],1.01
COc1ccc(-c2coc3cc(O)ccc3c2=O)cc1 (library stock concentration (final ~1000-fold dilution): 10 mM),NF-kB SEAP reporter activity,RAW-Dual [2]; agonist: LPS (TLR4) 0.1 ug/mL,1.25
same,NF-kB SEAP reporter activity,RAW-Dual [2]; [6],1.21
same,NF-kB SEAP reporter activity,RAW-Dual [2]; [7],1.13
same,NF-kB SEAP reporter activity,RAW-Dual [2]; [8],1.22
COc1ccc(-c2coc3cc(O)ccc3c2=O)cc1,NF-kB SEAP reporter activity,RAW-Dual [1]; [4],1.17
same,NF-kB SEAP reporter activity,RAW-Dual [1]; [5],1.21
CN1CCN(S(=O)(=O)c2ccc(-c3cnc(N)c(C(=O)Nc4cccnc4)n3)cc2)CC1 (library stock concentration (final ~1000-fold dilution): 10 mM),NF-kB SEAP reporter activity,RAW-Dual [2]; agonist: LPS (TLR4) 0.1 ug/mL,4.28
same,NF-kB SEAP reporter activity,RAW-Dual [2]; [6],2.61
same,NF-kB SEAP reporter activity,RAW-Dual [2]; [7],1.11
same,NF-kB SEAP reporter activity,RAW-Dual [2]; [8],2.07
CN1CCN(S(=O)(=O)c2ccc(-c3cnc(N)c(C(=O)Nc4cccnc4)n3)cc2)CC1,NF-kB SEAP reporter activity,RAW-Dual [1]; [4],1.5
same,NF-kB SEAP reporter activity,RAW-Dual [1]; [5],2.5
Nc1ccc2ncnc(NCCc3ccc(Oc4ccccc4)cc3)c2c1 (library stock concentration (final ~1000-fold dilution): 10 mM),NF-kB SEAP reporter activity,RAW-Dual [2]; agonist: LPS (TLR4) 0.1 ug/mL,1.57 and 1.15
same,NF-kB SEAP reporter activity,RAW-Dual [2]; [7],0.752 and 0.456
same,NF-kB SEAP reporter activity,RAW-Dual [2]; [8],1.02 and 0.73
Nc1ccc2ncnc(NCCc3ccc(Oc4ccccc4)cc3)c2c1,NF-kB SEAP reporter activity,RAW-Dual [1]; [4],1.46
O=C(Nc1cc(C(F)(F)F)cc(C(F)(F)F)c1)c1cc(Cl)ccc1O (library stock concentration (final ~1000-fold dilution): 10 mM),NF-kB SEAP reporter activity,RAW-Dual [3]; agonist: LPS (TLR4) 0.1 ug/mL,4.53 and 3.94
same,NF-kB SEAP reporter activity,RAW-Dual [3]; [6],1.84 and 1.74
same,NF-kB SEAP reporter activity,RAW-Dual [3]; [7],1.25 and 1.03
same,NF-kB SEAP reporter activity,RAW-Dual [3]; [8],1.99 and 1.13
CC1(C)OC(=O)C=CC2(C)C1CC(=O)C1(C)C2CCC2(C)C(c3ccoc3)OC(=O)C3OC321 (stereo not drawn),NF-kB SEAP reporter activity,RAW-Dual [1]; [4],0.98
same,NF-kB SEAP reporter activity,RAW-Dual [1]; [5],1.03
CC1(C)OC(=O)C=CC2(C)C1CC(=O)C1(C)C2CCC2(C)C(c3ccoc3)OC(=O)C3OC321 (stereo not drawn) (library stock concentration (final ~1000-fold dilution): 10 mM),NF-kB SEAP reporter activity,RAW-Dual [2]; agonist: LPS (TLR4) 0.1 ug/mL,1.04
same,NF-kB SEAP reporter activity,RAW-Dual [2]; [6],0.875
same,NF-kB SEAP reporter activity,RAW-Dual [2]; [7],1.02
same,NF-kB SEAP reporter activity,RAW-Dual [2]; [8],1.08
COC1CC2CCC(C)C(O)(O2)C(=O)C(=O)N2CCCCC2C(=O)OC(C(C)CC2CCC(OCCO)C(OC)C2)CC(=O)C(C)C=C(C)C(O)C(OC)C(=O)C(C)CC(C)C=CC=CC=C1C (stereo not drawn),NF-kB SEAP reporter activity,RAW-Dual [1]; [4],1.77
same,NF-kB SEAP reporter activity,RAW-Dual [1]; [5],1.92
COC1CC2CCC(C)C(O)(O2)C(=O)C(=O)N2CCCCC2C(=O)OC(C(C)CC2CCC(OCCO)C(OC)C2)CC(=O)C(C)C=C(C)C(O)C(OC)C(=O)C(C)CC(C)C=CC=CC=C1C (stereo not drawn) (library stock concentration (final ~1000-fold dilution): 10 mM),NF-kB SEAP reporter activity,RAW-Dual [2]; agonist: LPS (TLR4) 0.1 ug/mL,1.83
same,NF-kB SEAP reporter activity,RAW-Dual [2]; [6],1.7
same,NF-kB SEAP reporter activity,RAW-Dual [2]; [7],0.629
same,NF-kB SEAP reporter activity,RAW-Dual [2]; [8],0.915
CN(C)C(=O)C(O)C(Cc1ccccc1)NC(=O)c1cc2cc(Cl)ccc2[nH]1 (stereo not drawn),NF-kB SEAP reporter activity,RAW-Dual [1]; [4],0.875
same,NF-kB SEAP reporter activity,RAW-Dual [1]; [5],0.844
CN(C)C(=O)C(O)C(Cc1ccccc1)NC(=O)c1cc2cc(Cl)ccc2[nH]1 (stereo not drawn) (library stock concentration (final ~1000-fold dilution): 10 mM),NF-kB SEAP reporter activity,RAW-Dual [2]; agonist: LPS (TLR4) 0.1 ug/mL,1.17
same,NF-kB SEAP reporter activity,RAW-Dual [2]; [6],0.892
same,NF-kB SEAP reporter activity,RAW-Dual [2]; [7],1.05
same,NF-kB SEAP reporter activity,RAW-Dual [2]; [8],0.988
C=C1CCCC2(C)C=C3OC(=O)C(C)=C3CC12 (stereo not drawn) (library stock concentration (final ~1000-fold dilution): 10 mM),NF-kB SEAP reporter activity,RAW-Dual [2]; agonist: LPS (TLR4) 0.1 ug/mL,1
same,NF-kB SEAP reporter activity,RAW-Dual [2]; [6],1.06
same,NF-kB SEAP reporter activity,RAW-Dual [2]; [7],1.52
same,NF-kB SEAP reporter activity,RAW-Dual [2]; [8],1.49
C=C1CCCC2(C)C=C3OC(=O)C(C)=C3CC12 (stereo not drawn),NF-kB SEAP reporter activity,RAW-Dual [1]; [4],0.726
same,NF-kB SEAP reporter activity,RAW-Dual [1]; [5],1.14
O=C(O)c1cc(C(F)(F)F)ccc1N1CCC(OCc2ccccn2)C1 (stereo not drawn) (library stock concentration (final ~1000-fold dilution): 10 mM),NF-kB SEAP reporter activity,RAW-Dual [2]; agonist: LPS (TLR4) 0.1 ug/mL,1.02
same,NF-kB SEAP reporter activity,RAW-Dual [2]; [6],2.21
same,NF-kB SEAP reporter activity,RAW-Dual [2]; [7],1.22
same,NF-kB SEAP reporter activity,RAW-Dual [2]; [8],2.09
